Source: the supplement of paper PMC8728848
The other results are listed elsewhere or left out.

How the values were obtained:
Assay in all cases: glycan array binding signal (z-score within array); higher = stronger binding
Settings in all cases: glycan notation: IUPAC condensed, linker removed
[1] = target: Gal3S(b1-4)Glc
Method in brief: (§1)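 Glycan array data were curated from 3228 arrays in the Consortium for Functional Glycomics database and kept only where the protein sequence was available. Glycan names were converted to IUPAC-condensed notation, and columns mapping to the same glycan were averaged. The binding signal is a within-array Z-score, averaged across arrays of the same protein sequence at different concentrations or buffers and across linkers. Negative Z-scores can be read as non-binding.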

[2] = target: Gal3S(b1-4)Glc6S
Method in brief: as §1

[3] = target: Gal3S(b1-4)GlcNAc
Method in brief: as §1

[4] = target: Gal3S(b1-4)[Fuc(a1-3)]Glc6S
Method in brief: as §1

[5] = target: Gal3S(b1-4)[Fuc(a1-3)]GlcNAc
Method in brief: as §1

[6] = target: Gal3S(b1-4)[Fuc(a1-3)]GlcNAc6S
Method in brief: as §1

[7] = target: Gal3S4S(b1-4)GlcNAc
Method in brief: as §1

[8] = target: Gal3S6S(b1-4)GlcNAc
Method in brief: as §1

[9] = target: Gal3S6S(b1-4)GlcNAc6S
Method in brief: as §1

[10] = target: Gal4S(b1-4)GlcNAc
Method in brief: as §1

[11] = target: Gal4S6S(b1-4)GlcNAc
Method in brief: as §1

[12] = target: Gal6P(b1-4)GlcNAc
Method in brief: as §1

[13] = target: Gal6S(b1-3)GlcNAc
Method in brief: as §1

[14] = target: Gal6S(b1-3)GlcNAc6S
Method in brief: as §1

[15] = target: Gal6S(b1-4)Glc
Method in brief: as §1

[16] = target: Gal6S(b1-4)Glc6S
Method in brief: as §1

[17] = target: Gal6S(b1-4)GlcNAc
Method in brief: as §1

[18] = target: Gal6S(b1-4)GlcNAc6S
Method in brief: as §1

[19] = target: GalNAc(a1-3)Gal
Method in brief: as §1

[20] = target: GalNAc(a1-3)GalNAc
Method in brief: as §1

[21] = target: GalNAc(a1-3)GalNAc(b1-3)Gal(a1-4)Gal(b1-4)Glc
Method in brief: as §1

[22] = target: GalNAc(a1-3)GalNAc(b1-3)Gal(a1-4)Gal(b1-4)GlcNAc
Method in brief: as §1

[23] = target: GalNAc(b1-3)Gal
Method in brief: as §1

[24] = target: GalNAc(b1-3)Gal(a1-4)Gal(b1-4)GlcNAc
Method in brief: as §1

[25] = target: GalNAc(b1-3)Gal(a1-4)Gal(b1-4)GlcNAc(b1-3)Gal(b1-4)Glc
Method in brief: as §1

[26] = target: GalNAc(b1-3)Gal(a1-6)Gal(b1-4)Glc
Method in brief: as §1

[27] = target: GalNAc(b1-3)GalNAc
Method in brief: as §1

[28] = target: GalNAc(b1-3)GlcNAc
Method in brief: as §1

[29] = target: GalNAc(b1-4)Gal(b1-4)Glc
Method in brief: as §1

[30] = target: GalNAc(b1-4)GlcNAc
Method in brief: as §1

[31] = target: GalNAc(b1-4)GlcNAc(b1-2)Man
Method in brief: as §1

[32] = target: GalNAc(b1-4)GlcNAc(b1-2)Man(a1-3)[GalNAc(b1-4)GlcNAc(b1-2)Man(a1-6)]Man(b1-4)GlcNAc(b1-4)GlcNAc
Method in brief: as §1

[33] = target: GalNAc(b1-4)GlcNAc(b1-3)GalNAc(b1-4)GlcNAc
Method in brief: as §1

[34] = target: GalNAc(b1-4)GlcNAc6S
Method in brief: as §1

[35] = target: GalNAc(b1-6)GalNAc
Method in brief: as §1

[36] = target: GalNAc3S(b1-4)GlcNAc
Method in brief: as §1

[37] = target: GalNAc3S(b1-4)GlcNAc3S
Method in brief: as §1

[38] = target: GalNAc3S(b1-4)[Fuc(a1-3)]GlcNAc
Method in brief: as §1

[39] = target: GalNAc4S6S(b1-4)GlcNAc
Method in brief: as §1

[40] = target: GalNAc6S(b1-4)GlcNAc
Method in brief: as §1

[41] = target: Glc(a1-4)Glc
Method in brief: as §1

[42] = target: Glc(a1-4)Glc(a1-4)Glc(a1-4)Glc
Method in brief: as §1

[43] = target: Glc(a1-6)Glc(a1-6)Glc
Method in brief: as §1

[44] = target: Glc(a1-6)Glc(a1-6)Glc(a1-6)Glc
Method in brief: as §1

[45] = target: Glc(b1-4)Glc
Method in brief: as §1

B1: PX9937A-bvu-521-23-521 (Bacteroides vulgatus) (protein)
chain: LDLAPEDYYGAGNFWKEASQPKAFMLGLHAQLRSYYDMFYTLGELRGGTQRVGTSSLNTSLNYADIRSQNISEDIPGISNWNGLYSPIMQVNHFIQEVENGCTFLDDATRSRYLGQAYGMRALYYFMLYRTFGGVPLITKVDILDGKPSADKFYVERATPEATMEFIKADINKSENYFGNNTSFDAYDWSRYATLMLKAEIYMWAAKVSITGFTATGATDLQTAKTALSGIIGHFELMDNFASIFSCDNKKNTEIIFAMPFIEGEASNDGGRFLYQDAVFLGQAYGRNGKVIEKDTLNLKGTGGVFRDEYTEDFWKTFKEGDSRRDATFMEYYMKNDNGTLSEFGCVMKKRIGTINSNDNRIYISDIPVYRYADALLMMAEIENGLNNPCASYINEVRKRAYGDTFEENKYTEGSYAENELAILQERDKEFVSEGKRWFDVLRMHDASGRSLVFSANANYPGTNPILGTEEAYKMLWPVNIGTLNVNPLLTQTPGYGKK
[1]
  glycan array binding signal (z-score): -0.237
[2]
  glycan array binding signal (z-score): -0.188
[3]
  glycan array binding signal (z-score): -0.002
[4]
  glycan array binding signal (z-score): 0.244
[5]
  glycan array binding signal (z-score): -0.201
[6]
  glycan array binding signal (z-score): -0.018
[7]
  glycan array binding signal (z-score): -0.185
[8]
  glycan array binding signal (z-score): -0.124
[9]
  glycan array binding signal (z-score): 0.389
[10]
  glycan array binding signal (z-score): -0.63
[11]
  glycan array binding signal (z-score): -0.264
[12]
  glycan array binding signal (z-score): -0.348
[13]
  glycan array binding signal (z-score): -0.451
[14]
  glycan array binding signal (z-score): -0.386
[15]
  glycan array binding signal (z-score): 0.302
[16]
  glycan array binding signal (z-score): -0.163
[17]
  glycan array binding signal (z-score): -0.118
[18]
  glycan array binding signal (z-score): -0.378
[19]
  glycan array binding signal (z-score): -0.599
[20]
  glycan array binding signal (z-score): -0.63
[21]
  glycan array binding signal (z-score): 0.484
[22]
  glycan array binding signal (z-score): -0.318
[23]
  glycan array binding signal (z-score): -0.186
[24]
  glycan array binding signal (z-score): 0.47
[25]
  glycan array binding signal (z-score): -0.13
[26]
  glycan array binding signal (z-score): 0.139
[27]
  glycan array binding signal (z-score): -0.078
[28]
  glycan array binding signal (z-score): -0.413
[29]
  glycan array binding signal (z-score): -0.542
[30]
  glycan array binding signal (z-score): 2.94
[31]
  glycan array binding signal (z-score): 0.13
[32]
  glycan array binding signal (z-score): -0.274
[33]
  glycan array binding signal (z-score): -0.093
[34]
  glycan array binding signal (z-score): 0.089
[35]
  glycan array binding signal (z-score): -0.402
[36]
  glycan array binding signal (z-score): -0.552
[37]
  glycan array binding signal (z-score): -0.273
[38]
  glycan array binding signal (z-score): -0.255
[39]
  glycan array binding signal (z-score): 0.055
[40]
  glycan array binding signal (z-score): -0.356
[41]
  glycan array binding signal (z-score): -0.059
[42]
  glycan array binding signal (z-score): 1.98
[43]
  glycan array binding signal (z-score): -0.379
[44]
  glycan array binding signal (z-score): -0.034
[45]
  glycan array binding signal (z-score): -0.305
